T1: UNK ZnF1-6 (called full-length) (human, UniProt Q9C0B0 30-357)
T1 sequence: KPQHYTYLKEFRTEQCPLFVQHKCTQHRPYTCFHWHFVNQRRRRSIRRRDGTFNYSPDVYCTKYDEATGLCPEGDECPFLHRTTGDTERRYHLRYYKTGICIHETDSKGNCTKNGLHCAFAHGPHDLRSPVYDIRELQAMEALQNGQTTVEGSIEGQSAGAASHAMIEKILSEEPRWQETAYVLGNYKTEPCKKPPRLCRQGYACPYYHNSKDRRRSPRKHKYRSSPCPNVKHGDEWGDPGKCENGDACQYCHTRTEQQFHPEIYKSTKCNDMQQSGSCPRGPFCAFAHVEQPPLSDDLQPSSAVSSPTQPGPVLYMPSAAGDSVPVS

B1: chrX:56565067:56565173:+|CDS|ENSG00000188021|unk|total|mutant (ssRNA)
RNA: GGGAGUUCUACAGUCCGACGAUCAGAAGCAUGAUGCAGUCGCUGAGCCAGAAUCCAGAUUUGGCUGCACAGAUGAUGCUGAACCGCCCGCUGUUUACUGCAAAUCCUCAGCUGCAGGAGCAGAUGCGGCCACAGCUCCCAGCCCAACAGAGGAUUGAGCAUCA
B2: chr5:75360489:75360590:+|3pUTR|ENSG00000113161|msi1|FALSE|unique (ssRNA)
RNA: GGGAGUUCUACAGUCCGACGAUCGCUCUUUCAGAGAGGUCUCAGGUUCUUUCCAUGCAGACUCCUCAGAUCUGAACACAGUUUAGUGCUUUACAUGCUGUGCUCUUUGAAGAGAUUUCAACAAGAAUAUUGUAUGUUAAAGCACAACAGAGGAUUGAGCAUCA
B3: chr2:11642538:11642650:+|3pUTR|ENSG00000196208|unk|FALSE|unique (ssRNA)
RNA: GGGAGUUCUACAGUCCGACGAUCCGAAGAGUUGAUGUCAAUCUUUUUUUCCUAAGAAAAAAAGUCCGCGAGUAUUAAAUAUUUAGAUCAAUGUUUAUAAAAUGAUUACUUUGUAUAUCUCAUUAUUCCUAUUUUGGAAUAAAACAACAGAGGAUUGAGCAUCA
B4: chr1:211748167:211748268:-|3pUTR|ENSG00000123684|msi1|total|mutant (ssRNA)
RNA: GGGAGUUCUACAGUCCGACGAUCGUACUGCAUCAGUGAGAUGAGCCGGGUUUUUGUUUGGGAUUGUAAGACUAUUAAGAUCCCCGUAAGUCAGUGGCCGUUUACUGUGAUGUGAGCAUUGCCGAUUCCCCCGUUGUCACUAAUCAACAGAGGAUUGAGCAUCA
B5: chr3:170361105:170361226:+|CDS|ENSG00000136603|unk|total|mutant (ssRNA)
RNA: GGGAGUUCUACAGUCCGACGAUCAAGCUCAUUGGCCCAGUUAAAGGAAACUGGCAGUGCCUUUGAAGUGGAGCAUGAAUGCCCCGGCAAAUGUCAGGGUUUAUUUGCACCCCAGUUUUAUGUUCAGCCUGAUGCUCCGUGUAUCAACAGAGGAUUGAGCAUCA
B6: chr7:88283957:88284065:-|CDS|ENSG00000127954|unk|total|mutant (ssRNA)
RNA: GGGAGUUCUACAGUCCGACGAUCCAGUGGUGCAGAAGUCUUGAGCUAUUCAGAAGCAGCCAAGAAGUCUGGCAUCAUAAUCACCGCAAUCCACAGAGAGCAUUAUGAUUUUCUCACAGAAUUAACUGAGGUUCUCAAUGGAAACAACAGAGGAUUGAGCAUCA
B7: chr12:108783210:108783311:-|3pUTR|ENSG00000084112|msi1|total|mutant (ssRNA)
RNA: GGGAGUUCUACAGUCCGACGAUCUGUUUAUCCUGCUAUGCAGUUUUACAUUGUGUGUUCACAUCUAUUCCAAGGAGCCUUGCCCGAAACAACACUGGCGGUUCCUGCAGGCCAGGCAGGCAUUGGCCCAUGCUGUGUCCCAUACAACAGAGGAUUGAGCAUCA
B8: chr16:56429670:56429771:-|3pUTR|ENSG00000167005|msi1|FALSE|unique (ssRNA)
RNA: GGGAGUUCUACAGUCCGACGAUCCAAUCACUGAGACUGCAUCAGAGUUUGCAAUUUUGUAUGUUUCAUUGCCAAAGAAGGCUUAGUGGUUGUUGACUGUAGUAUAAGUCAGCUUUCUGUAGCAUAAGAUUUGAUUUUCCCAUACAACAGAGGAUUGAGCAUCA
B9: ENSG00000136451:be:win_2751|3pUTR|ENSG00000136451|bound_else_gene|NA|bound_elsewhere_windowed (ssRNA)
RNA: GGGAGUUCUACAGUCCGACGAUCCUUUGUGGUGUUUUCAGGGAGACAGCUGUCUGCAUUCCCUGUAGAAACCCAGCAAUGAUUAUGCACGUUGAGACAUGUGCUUUUUAUUUCUUAGCAAGAUAUUUUAUCUCUGUACAUAAACAACAGAGGAUUGAGCAUCA
B10: chr8:143707665:143708109:-|CDS|ENSG00000255181|control|control|control (ssRNA)
RNA: GGGAGUUCUACAGUCCGACGAUCGCGCGCCCAGCGCUGCGCCAAAGCCAUCGUCCGGCUGGACGAGCAGAACCGCGUGGACCUAGCGCAGAUCCACUGGCAGCGGGCGGAACUGGCCUCGCUCUACCACGGGCGCGAGGACGGCAACAGAGGAUUGAGCAUCA
B11: chr10:72011604:72011705:+|3pUTR|ENSG00000122863|msi1|FALSE|unique (ssRNA)
RNA: GGGAGUUCUACAGUCCGACGAUCCACCUGCCCGGAGACAGAGGGAGCAGCUGAGGCCUCUCUCCACUGGCCGCCAGCCUCCCUAGCACAAGGGGACCAUUCAGCAAUGAGUGUUUACUCAUGUUCUUUCUUGUUGAUGAGUUCCAACAGAGGAUUGAGCAUCA
B12: chr7:139045324:139045425:-|3pUTR|ENSG00000105939|msi1|total|mutant (ssRNA)
RNA: GGGAGUUCUACAGUCCGACGAUCAGUUCAAAACCGCUGUCAUGGCCCCAUGUGAUCUCUCCCUCCCCUACCCCUCUAUCAUUCCGUUUCUUCUGCGCAAGCCACUCUGGCUUCCUUUCAGUUUUGUGGUUCCCAUUUUCCGCUCAACAGAGGAUUGAGCAUCA
B13: chr5:91369659:91369760:-|3pUTR|ENSG00000113369|msi1|FALSE|bound_elsewhere (ssRNA)
RNA: GGGAGUUCUACAGUCCGACGAUCUCAGCAUUUUCCAAGGUACCAAGUGUACUUAUUUUGUUGUUGUUGUUGUUGUUGUAUUUUAGAAGGAAUUCAGCUCUGAUGUUUUUAAAGAAAACCAGCAUCUCUGAUGUUGCAACAUACCAACAGAGGAUUGAGCAUCA
B14: chr16:67098774:67098826:+|CDS_3pUTR|ENSG00000067955|msi1_unk|FALSE|overlapping (ssRNA)
RNA: GGGAGUUCUACAGUCCGACGAUCAGACCCUAGUCCUGGUUCCAAUUUAGGUGGUGGUGAUGACCUCAAACUUCGUUAAUUAAUAGCACAGCAGAUGUGUGCUGCCCAUCUUUACAUACACAUUGCUUCUAGUUGGCAGAAAUACAACAGAGGAUUGAGCAUCA
B15: ENSG00000092871:stop:overlap|stop_codon|ENSG00000092871|stop_codon|NA|stop_codon (ssRNA)
RNA: GGGAGUUCUACAGUCCGACGAUCCAGGCUUGGAACCAAGCUGCAAGUCCUGUGGGGCUCACUUUGCAAACACGGCCAGGAAGUAGUGCUCAAGAUCACAUAGUUAUUAAAUGACAGAGCCGGGAUUCAAACCCAGGUCCUUGACAACAGAGGAUUGAGCAUCA
B16: chr11:77702383:77702481:-|5pUTR_CDS|ENSG00000048649|msi1_unk|total|mutant (ssRNA)
RNA: GGGAGUUCUACAGUCCGACGAUCAUUUUCCGAGGAACAGAAAGAAAGUGAAAAGAUGAAAAGUGAGGAGCAGCCUAUGGAUUCCGAAAACCGUUCUACAGCCAAUGUUCCCGAAGAGACUACUGUGAAAAAAGAAAAAGAAGACAACAGAGGAUUGAGCAUCA
B17: ENSG00000120708:stop:overlap|stop_codon|ENSG00000120708|stop_codon|NA|stop_codon (ssRNA)
RNA: GGGAGUUCUACAGUCCGACGAUCCCCAGAGGUCUGUGCGACUAGCCCCUGUCUAUCAAAAGUUAUUAGAGAGGAUGAAGCAUUAGCUUGAAGCACUACAGGAGGAAUGCACCACGGCAGCUCUCCGCCAAUUUCUCUCAGAUUCAACAGAGGAUUGAGCAUCA
B18: chr19:37127587:37127689:+|CDS|ENSG00000197050|unk|FALSE|unique (ssRNA)
RNA: GGGAGUUCUACAGUCCGACGAUCUAUGCAUGUAAGGAAUGUGGGAAGGCCUUUACUCAAAGCUCACAACUUAUUUUACAUCAUAGAAUUCAUACUGGUGAAAAACCAUAUAAAUGUGAAGAAUGUGGGAAAGCCUUUAUUCGUCAACAGAGGAUUGAGCAUCA
B19: chrX:103676501:103676735:-|CDS|ENSG00000123562|unk|FALSE|unique (ssRNA)
RNA: GGGAGUUCUACAGUCCGACGAUCGGAGGUUAAAGUGAAGAUUCCUGAAGAAUUAAAACCAUGGCUUGUUGAGGACUGGGACUUAGUUACCAGGCAGAAGCAGCUGUUUCAACUCCCUGCCAAGAAAAAUGUAGAUGCAAUUCUCAACAGAGGAUUGAGCAUCA
B20: chr19:8065921:8066260:-|CDS|ENSG00000142449|control|control|control (ssRNA)
RNA: GGGAGUUCUACAGUCCGACGAUCCCUCUCACACCUGGGCCGGGCCGAGCGCAUCCUGGAGCUCCGGCCGGCCCUGGAGGGUCUAGAGGGCCGGAUCCGCUACGUCAUCGUCCGCGGAAACGAGCAAGGUUUCUUUCGCAUGCACAACAGAGGAUUGAGCAUCA
B21: chr10:17315694:17315795:-|3pUTR|ENSG00000148488|unk|total|mutant (ssRNA)
RNA: GGGAGUUCUACAGUCCGACGAUCCUUCUUCCUCCCUGUCCAUCCCACCCUCGUCCCCAGAAAAUUCCUAAUCUGUUUUUCUACCGACAUUUACAUUUUUACACUACCGACUGUUUACAUUUUUCCGAAUUUUAUAUAAAUGGACAACAGAGGAUUGAGCAUCA
B22: ENSG00000198589:be:win_6651|CDS|ENSG00000198589|bound_else_gene|NA|bound_elsewhere_windowed (ssRNA)
RNA: GGGAGUUCUACAGUCCGACGAUCUCUCAACACGAUAGCAGGACGGAGUUAUAAUGACUUAAAUCAGUAUCCAGUGUUUCCUUGGGUCAUCACUAAUUAUGAAUCAGAAGAACUGGAUCUUACCUUGCCCACCAACUUCAGAGACAACAGAGGAUUGAGCAUCA

This is one part of the list.

Among the data in PMC12136788 are binding signal values, retold here.

In the assay the target is T1, UNK ZnF1-6 (called full-length). The assay is described as follows: nsRBNS (natural sequence RNA bind-n-seq); RBNS binding buffer (assumed for nsRBNS): 25 mM Tris pH 7.5, 150 mM KCl, 3 mM MgCl2, 0.01% Triton X-100, 500 ug/ml BSA, 20 U/ml SUPERase-In, 4 C; UNK is unkempt and MSI1 is Musashi-1; names of the RNAs are library labels; protein concentration not given here; high values mean tight binding.
B1 gave a binding signal of 0.531 enrichment R.

Take B2: the binding signal was 0.272 enrichment R. To B3 belongs 1.25 enrichment R; to B4, 0.673 enrichment R. To B5 belongs 0.504 enrichment R. For B6 the value was 0.323 enrichment R. B7 displayed a binding signal of 0.767 enrichment R. To B8 belongs 0.52 enrichment R; to B9, 0.864 enrichment R. To B10 belongs 0.579 enrichment R; to B11, 0.501 enrichment R; to B12, 0.949 enrichment R. For B13 the value was 0.378 enrichment R; for B14, 0.938 enrichment R.

In the case of B15, the binding signal was 0.31 enrichment R. For B16 the value was 0.679 enrichment R; for B17, 0.853 enrichment R; for B18, 0.478 enrichment R. To B19 belongs 0.808 enrichment R; to B20, 0.389 enrichment R. For B21, the binding signal came out at 1.81 enrichment R. To B22 belongs 0.356 enrichment R.
